# The list shows a part of the results.
# Key:
# Experiment in all cases: glycan array binding signal (z-score within array); higher = stronger binding
# Conditions in all cases: glycan notation: IUPAC condensed, linker removed
# Gal(b1-4)Glc = target: Gal(b1-4)Glc
# Outline: (§1)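 The Consortium for Functional Glycomics database supplied 3228 glycan arrays, of which those lacking an available protein sequence were dropped. The binding signal, a within-array Z-score, was averaged across arrays of the same protein sequence and across linkers. Negative scores can be read as non-binding.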
# Gal(b1-4)Glc6S = target: Gal(b1-4)Glc6S
# Outline: as §1
# Gal(b1-4)GlcNAc = target: Gal(b1-4)GlcNAc
# Outline: as §1
# [1] = target: Gal(b1-4)GlcNAc(a1-6)Gal(b1-4)GlcNAc
# Outline: as §1
# Gal(b1-4)GlcNAc(b1-2)Man = target: Gal(b1-4)GlcNAc(b1-2)Man
# Outline: as §1
# [2] = target: Gal(b1-4)GlcNAc(b1-2)Man(a1-3)Man(b1-4)GlcNAc(b1-4)GlcNAc
# Outline: as §1
# [3] = target: Gal(b1-4)GlcNAc(b1-2)Man(a1-3)[Gal(b1-4)GlcNAc(b1-2)Man(a1-6)]Man(b1-4)GlcNAc(b1-4)GlcNAc
# Outline: as §1
# [4] = target: Gal(b1-4)GlcNAc(b1-2)Man(a1-3)[Gal(b1-4)GlcNAc(b1-2)Man(a1-6)]Man(b1-4)GlcNAc(b1-4)[Fuc(a1-6)]GlcNAc
# Outline: as §1
# [5] = target: Gal(b1-4)GlcNAc(b1-2)Man(a1-3)[Gal(b1-4)GlcNAc(b1-2)Man(a1-6)][Gal(b1-4)GlcNAc(b1-4)]Man(b1-4)GlcNAc(b1-4)[Fuc(a1-6)]GlcNAc
# Outline: as §1
# [6] = target: Gal(b1-4)GlcNAc(b1-2)Man(a1-3)[Gal(b1-4)GlcNAc(b1-2)Man(a1-6)][GlcNAc(b1-4)]Man(b1-4)GlcNAc(b1-4)[Fuc(a1-6)]GlcNAc
# Outline: as §1
# [7] = target: Gal(b1-4)GlcNAc(b1-2)Man(a1-3)[GlcNAc(b1-2)Man(a1-6)]Man(b1-4)GlcNAc(b1-4)GlcNAc
# Outline: as §1
# [8] = target: Gal(b1-4)GlcNAc(b1-2)Man(a1-3)[GlcNAc(b1-4)][Gal(b1-4)GlcNAc(b1-2)Man(a1-6)]Man(b1-4)GlcNAc(b1-4)GlcNAc
# Outline: as §1
# [9] = target: Gal(b1-4)GlcNAc(b1-2)Man(a1-3)[Man(a1-6)]Man(b1-4)GlcNAc(b1-4)GlcNAc
# Outline: as §1
# [10] = target: Gal(b1-4)GlcNAc(b1-2)Man(a1-6)Man(b1-4)GlcNAc(b1-4)GlcNAc
# Outline: as §1
# [11] = target: Gal(b1-4)GlcNAc(b1-2)Man(a1-6)[GlcNAc(b1-2)Man(a1-3)]Man(b1-4)GlcNAc(b1-4)GlcNAc
# Outline: as §1
# [12] = target: Gal(b1-4)GlcNAc(b1-2)Man(a1-6)[Man(a1-3)]Man(b1-4)GlcNAc(b1-4)GlcNAc
# Outline: as §1
# [13] = target: Gal(b1-4)GlcNAc(b1-2)[Gal(b1-4)GlcNAc(b1-4)]Man(a1-3)[Gal(b1-4)GlcNAc(b1-2)Man(a1-6)]Man(b1-4)GlcNAc(b1-4)GlcNAc
# Outline: as §1
# [14] = target: Gal(b1-4)GlcNAc(b1-2)[Gal(b1-4)GlcNAc(b1-4)]Man(a1-3)[Gal(b1-4)GlcNAc(b1-2)[Gal(b1-4)GlcNAc(b1-6)]Man(a1-6)]Man(b1-4)GlcNAc(b1-4)GlcNAc
# Outline: as §1
# [15] = target: Gal(b1-4)GlcNAc(b1-2)[Gal(b1-4)GlcNAc(b1-4)]Man(a1-3)[GlcNAc(b1-4)][Gal(b1-4)GlcNAc(b1-2)Man(a1-6)]Man(b1-4)GlcNAc(b1-4)GlcNAc
# Outline: as §1
# [16] = target: Gal(b1-4)GlcNAc(b1-2)[Gal(b1-4)GlcNAc(b1-4)]Man(a1-3)[GlcNAc(b1-4)][Gal(b1-4)GlcNAc(b1-2)[Gal(b1-4)GlcNAc(b1-6)]Man(a1-6)]Man(b1-4)GlcNAc(b1-4)GlcNAc
# Outline: as §1
# [17] = target: Gal(b1-4)GlcNAc(b1-2)[Gal(b1-4)GlcNAc(b1-6)]Man(a1-6)[Gal(b1-4)GlcNAc(b1-2)Man(a1-3)]Man(b1-4)GlcNAc(b1-4)GlcNAc
# Outline: as §1
# [18] = target: Gal(b1-4)GlcNAc(b1-2)[Gal(b1-4)GlcNAc(b1-6)]Man(a1-6)[Gal(b1-4)GlcNAc(b1-2)Man(a1-3)]Man(b1-4)GlcNAc(b1-4)[Fuc(a1-6)]GlcNAc
# Outline: as §1
binder,measurement,setting,value
Als3-2 (Candida albicans) (protein) KTITGVFNSFNSLTWSNAATYNYKGPGTPTWNAVLGWSLDGTSASPGDTFTLNMPCVFKFTTSQTSVDLTAHGVKYATCQFQAGEEFMTFSTLTCTVSNTLTPSIKALGTVTLPLAFNVGGTGSSVDLEDSKCFTAGTNTVTFNDGGKKISINVDFERSNVDPKGYLTD,glycan array binding signal (z-score),Gal(b1-4)Glc,-0.62
same,glycan array binding signal (z-score),Gal(b1-4)Glc6S,-0.361
same,glycan array binding signal (z-score),Gal(b1-4)GlcNAc,-0.315
same,glycan array binding signal (z-score),[1],0.563
same,glycan array binding signal (z-score),Gal(b1-4)GlcNAc(b1-2)Man,0.441
same,glycan array binding signal (z-score),[2],-0.17
same,glycan array binding signal (z-score),[3],-0.319
same,glycan array binding signal (z-score),[4],-0.135
same,glycan array binding signal (z-score),[5],0.231
same,glycan array binding signal (z-score),[6],1.26
same,glycan array binding signal (z-score),[7],-0.106
same,glycan array binding signal (z-score),[8],1.3
same,glycan array binding signal (z-score),[9],0.449
same,glycan array binding signal (z-score),[10],0.929
same,glycan array binding signal (z-score),[11],-0.3
same,glycan array binding signal (z-score),[12],-0.194
same,glycan array binding signal (z-score),[13],-0.643
same,glycan array binding signal (z-score),[14],-0.603
same,glycan array binding signal (z-score),[15],-0.22
same,glycan array binding signal (z-score),[16],-0.482
same,glycan array binding signal (z-score),[17],-0.63
same,glycan array binding signal (z-score),[18],-0.464
